Among all 94,000 compounds or so, about 4,000 (4.3%) were called active. The inconclusive results got no clear call from the source; some entries with a clear call stand among them for comparison. The call rests on the fitted dose curve; in most records, active means well fitted inhibition curve with a large enough effect; inconclusive means small, poorly fitted or top-dose-only effect; inactive means no such curve, though single readings can be large or run the other way. Potencies of inconclusive entries are doubtful fits and often do not repeat.
Assay: Cytotoxic Profiling in NIH 3T3 Cell Line of Diverse Libraries Using Quantitative High-Throughput Screening; further: nearly all actives have a fitted effect of over 55% in size
Details: NIH 3T3 viability, CellTiter-Glo ATP luminescence, 48-72 h; series mostly up to 96.7 µM
Method in brief: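 Mouse fibroblast NIH 3T3 cells, 400 per well, received compound via pintool and were incubated for 48 or 72 hr prior to CellTiter-Glo ATP luminescence measurement.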
Potency means the concentration at half of the fitted maximal effect; tags describe the fitted curve by direction and shape.

Compound	Potency
CCc1cccc(-n2nnnc2N2CCN(C(=O)Nc3ccc(C)c(F)c3)C(C)C2)c1 (configuration not stated)	inconclusive: 50.1 µM [inhibitor, partial curve, poor fit]
CC1CCCC(C)N1C(=O)c1cc(-c2cc(Cl)cc(Cl)c2)c2nncn2n1 (configuration not stated)	inconclusive: 79.4 µM [inhibitor, partial curve, poor fit]
COc1cccc(-c2ccc3c(n2)CN(Cc2ccc(F)cc2)C(=O)CO3)c1	inconclusive: 79.4 µM [inhibitor, partial curve, poor fit]
Cc1cc(C(=O)N2CCn3nc(C(=O)Nc4ccccc4)cc3C2)cc(=O)[nH]1	inactive
CCOc1cc(=O)n2c(c1C(=O)Nc1ccc(OC)cc1C)CCCC2	inactive
CCCCn1c(=O)c(C(=O)N2CCN(C(=O)Nc3ccc(Cl)cc3)CC2)nc2cccnc21	inconclusive: 44.7 µM [inhibitor, partial curve, poor fit]
COc1ccccc1C(=O)N1CCCN(c2cc(-c3ccc(F)cc3)[nH]n2)CC1	inconclusive: 31.6 µM [inhibitor, partial curve, poor fit]
COc1ccc(-c2cnc(Nc3ccccc3)c3c2CCO3)cn1	inconclusive: 31.6 µM [inhibitor, full curve]
Cc1cccc(C(=O)N2CCC(Oc3ccccc3-c3nc(C)no3)C2)c1 (configuration not stated)	inactive
O=C(CCCc1ccccc1)NC1CCN(c2cc(-c3ccccc3)[nH]n2)CC1	inconclusive: 50.1 µM [inhibitor, partial curve, poor fit]
O=C(Cc1ccc(F)cc1)NC1CCN(c2cc(-c3ccc(Cl)cc3)[nH]n2)CC1	inactive
COc1cccc(N2C(=O)NC(=NC3CCCC3)C23CCN(C(=O)c2ccccc2OC)C3)c1 (configuration not stated)	inactive
Cc1ccc(C2=NC3(CCN(C(=O)c4ccc5cc[nH]c5c4)CC3)ON2)cc1	inconclusive: 31.6 µM [inhibitor, partial curve, poor fit]
CC(C)CCN1CCC(N2CCN(S(=O)(=O)c3ccc4c(c3)CCCC4)CC2)C1=O (configuration not stated)	inconclusive: 44.7 µM [inhibitor, partial curve, poor fit]
COc1ccc(-c2cc(N3CCCC(NC(=O)Cc4ccsc4)C3)n[nH]2)cc1 (configuration not stated)	inconclusive: 50.1 µM [inhibitor, partial curve, poor fit]
Cc1ccc(-c2noc([C@@H]3C[C@H](NS(=O)(=O)c4ccc(Cl)cc4)CN3C)n2)cc1	inconclusive: 100 µM [inhibitor, partial curve]
CCOc1cccc2c1OC[C@@H]1CN(CCOC)C(=O)CCN(C(=O)c3ccccc3OC)[C@H]21	inconclusive: 56.2 µM [inhibitor, partial curve, poor fit]
Cc1cccc(C(=O)NC2CCN(c3cc(-c4ccc(F)cc4)[nH]n3)C2)c1 (configuration not stated)	inconclusive: 44.7 µM [inhibitor, partial curve, poor fit]
Cc1cc(F)ccc1OC1CN(Cc2ccc(C(F)(F)F)cc2)C1	inconclusive: 63.1 µM [inhibitor, partial curve, poor fit]

Compound	Potency
Cc1ccc(N2CCN(C(=O)c3noc(-c4ccc5c(c4)OCO5)n3)CC2)c(C)c1	inconclusive: 50.1 µM [inhibitor, partial curve, poor fit]
Cc1cc2cc(-c3c(C)noc3C)nc(NCC3CC3)c2o1	inconclusive: 56.2 µM [inhibitor, partial curve, poor fit]
CC(C)Oc1ccc(CN2CCC(C)(c3noc(C4CCOCC4)n3)CC2)cc1	inactive
COCC(=O)NC1CCN(c2nccc(Nc3ccccc3F)n2)CC1	inconclusive: 35.5 µM [inhibitor, partial curve, poor fit]
COc1ccc(CN2CC3(CCN(C(=O)Cc4c(F)cccc4Cl)CC3)C2=O)cc1	inconclusive: 50.1 µM [inhibitor, partial curve, poor fit]
O=C(C1CCCC1)N1CCC(n2c(=O)[nH]c3ccccc32)CC1	inactive
CC(C)CN1CCN(C(=O)CCC2CCN(c3cc(NC4CC4)ncn3)CC2)CC1	inconclusive: 50.1 µM [inhibitor, partial curve, poor fit]
O=C1CC2(CCN([S+](=O)([O-])c3cccc(C(F)(F)F)c3)CC2)Oc2ccccc2N1	inconclusive: 50.1 µM [inhibitor, partial curve, poor fit]
CC(C)(C)c1ccc(-c2cc(C[C@H]3CNCC[C@H]3CC(=O)NCCN3CCOCC3)no2)cc1	active: 50.1 µM
CC1Oc2ccc(NC(=O)c3c(F)cccc3F)cc2CN(Cc2ccccc2F)C1=O (configuration not stated)	inconclusive: 50.1 µM [inhibitor, partial curve, poor fit]
Cc1ccc(-c2cc(C(=O)NCCCc3ccccc3)c3cnn(C)c3n2)c(C)c1	inconclusive: 44.7 µM [inhibitor, partial curve, poor fit]
O=C(c1n[nH]c2c1CN(Cc1cccnc1)CC2)N1CCOCC1	inactive
COc1ccc(C(=O)N2CC[C@H](c3nnc(-c4ccccc4)o3)C2)cc1	inconclusive: 56.2 µM [inhibitor, single point]
Cc1ccn2c(=O)cc(CN3CC[C@@H]4[C@@H](CCC(=O)N4CCC(C)C)C3)nc2c1	inconclusive: 70.8 µM [inhibitor, single point]
CN1C[C@@H](NC(=O)Nc2ccc(F)cc2F)C[C@H]1c1nc(-c2ccncc2)no1	inconclusive: 70.8 µM [inhibitor, partial curve, poor fit]
Cn1cc(CC(=O)N2CCCc3ncc(C(N)=O)cc32)c2ccccc21	inconclusive: 10 µM [inhibitor, full curve]
COc1cc(F)ccc1-c1cc(-c2c(C)noc2C)c2cncn2c1	inconclusive: 39.8 µM [inhibitor, partial curve, poor fit]
CC(C)Oc1ccc(CNC(=O)CCC2CCN(S(=O)(=O)c3ccccc3)CC2)cc1	inconclusive: 50.1 µM [inhibitor, partial curve, poor fit]
